This is one part of the list. Many values rest on one well or one pass, so single values are uncertain.
System: SkMel28
Test: cell count relative to DMSO control; melanoma cells; higher = more viable cells
Settings: library dose: standard library concentration; 72 h
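Note: cells treated in 1,536-well plates, then fixed and DAPI-stained, with nuclei counted from automated high-throughput microscope images.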

Structure (SMILES) | cell count [%]
CC1(C)NC(=O)N(c2ccc([N+](=O)[O-])c(C(F)(F)F)c2)C1=O [nilutamide] + CCc1ccc(CCOc2ccc(CC3SC(=O)NC3=O)cc2)nc1 [pioglitazone] (first compound 5 µM, partner dose 10 µM) | 65.6
O=C(Nc1cccc(Cl)c1)Nc1ncc(CCNc2ncnc3ccsc23)s1 + CC(C)CCN1c2nc(Nc3cc(F)c(O)c(F)c3)ncc2N(C)C(=O)C1C [BID1870] (first compound 0.004 µM, partner dose 1 µM) | 36.2
COc1cc(Nc2ncc(F)c(Nc3ccc4c(n3)NC(=O)C(C)(C)O4)n2)cc(OC)c1OC [Tamatinib] + N#Cc1c(O)c2c(-c3ccc(-c4ccccc4O)cc3)csc2[nH]c1=O [A769662] (first compound 2 µM, partner dose 10 µM) | 60.8
O=C(Nc1cccc(Cl)c1)Nc1ncc(CCNc2ncnc3ccsc23)s1 + COC(=O)c1sccc1S(=O)(=O)Nc1ccc(Nc2ccccc2)cc1OC [GSK0660] (first compound 0.004 µM, partner dose 5 µM) | 42.9
O=C(Nc1cccc(Cl)c1)Nc1ncc(CCNc2ncnc3ccsc23)s1 + c1cc(-c2cnn3cc(-c4ccc(OCCN5CCCCC5)cc4)cnc23)ccn1 [Dorsomorphin] (first compound 0.004 µM, partner dose 2 µM) | 36
CC1(C)NC(=O)N(c2ccc([N+](=O)[O-])c(C(F)(F)F)c2)C1=O [nilutamide] + COc1ccc2c(c1)CCC1C2CCC2(C)C(NCCCCCCN3C(=O)C=CC3=O)CCC12 [U73122] (first compound 5 µM, partner dose 2 µM) | 93.3
O=C(Nc1cccc(Cl)c1)Nc1ncc(CCNc2ncnc3ccsc23)s1 + Oc1cc(-c2nc(-c3ccccc3)[nH]c2-c2ccncc2)ccc1Cl [L779450] (first compound 0.004 µM, partner dose 1 µM) | 36.9
CC1(C)NC(=O)N(c2ccc([N+](=O)[O-])c(C(F)(F)F)c2)C1=O [nilutamide] + Cc1cc([N+](=O)[O-])ccc1NS(=O)(=O)c1cc(Cl)ccc1Cl [FH535] (first compound 5 µM, partner dose 5 µM) | 56
O=C(O)c1ccc(-c2c[nH]c3ncc(-c4ccccc4)cc23)cc1C1CCCC1 + CC(C)CCN1c2nc(Nc3cc(F)c(O)c(F)c3)ncc2N(C)C(=O)C1C [BID1870] (first compound 0.8 µM, partner dose 1 µM) | 65
Cn1cncc1[C@@](N)(c1ccc(Cl)cc1)c1ccc2c(c1)c(-c1cccc(Cl)c1)cc(=O)n2C [tipifarnib] + COc1cc(N2CCC(N3CCN(C)CC3)CC2)ccc1Nc1ncc(Cl)c(Nc2ccccc2S(=O)(=O)C(C)C)n1 [NVP-TAE684] (first compound 0.05 µM, partner dose 0.4 µM) | 52.4
O=C(O)c1ccc(-c2c[nH]c3ncc(-c4ccccc4)cc23)cc1C1CCCC1 + COc1ccc2c(c1)CCC1C2CCC2(C)C(NCCCCCCN3C(=O)C=CC3=O)CCC12 [U73122] (first compound 0.8 µM, partner dose 2 µM) | 78.8
C[C@@H]1CCN(C(=O)CC#N)C[C@@H]1N(C)c1ncnc2[nH]ccc12 + O=C(O)C(=O)Nc1sc2c(c1C(=O)O)CCNC2 [TCS401] (first compound 5 µM, partner dose 8.33333 µM) | 136
C[C@@H]1CCN(C(=O)CC#N)C[C@@H]1N(C)c1ncnc2[nH]ccc12 + CCCCCCCCCCCC1=C(O)C(=O)C=C(O)C1=O [Embelin] (first compound 5 µM, partner dose 6 µM) | 69.4
O=C(Nc1cccc(Cl)c1)Nc1ncc(CCNc2ncnc3ccsc23)s1 + COc1ccc(COc2ccc(Cc3cnc(N)nc3N)cc2OC)cc1 [GW2580] (first compound 0.004 µM, partner dose 5 µM) | 45
COc1cc(Nc2ncc(F)c(Nc3ccc4c(n3)NC(=O)C(C)(C)O4)n2)cc(OC)c1OC [Tamatinib] + COc1ccc2c(c1)CCC1C2CCC2(C)C(NCCCCCCN3C(=O)C=CC3=O)CCC12 [U73122] (first compound 2 µM, partner dose 2 µM) | 76
